The source gives no read counts; variants with many changes may rest on few reads.
B1: OR4K15 (parent)
chain: GUUAACGGUCAUAGGCCAUGGAAACUAGGAGCACCAUUUCGCUGCCAGUGAAGAAAUGAACAAAGAAAAUCUGGGCCAGGCAGGCAUCAAAAGAAAUAGUCUUGCGCUCAACCAGAAAGUCUGUAAUCAUUUUAAGGGUA

Variants of: B1
Assay: self-cleavage, relative activity (ratio to wild type); higher = more cleavage; in vitro, sequencing; the parent is a self-cleaving ribozyme

Variant	self-cleavage
G31A A33G A91G	0.5
C32U A33G A64G	0.39
A33U U43A A95G	0.13
A33U A51G A89G A96G	1.57
A33G U70C A95G	0.78
A36C A116G U130C	0.76
A36C G53A A63C U70C A91G	1.07
A33G A52G U108C A118G	0.01
C32U A68G A95G U124C	1.3
A33G A78G C81U	0.11
A33G A63U A67G A69G U70C	0.13
G31A A67C U122C	1.6
A36G A63G U120C	2.78
A33G A59G A67G A117G	0.9
A36C A56G A90G U102A U120C	0.21
A33G A51G A68G A91G A92G	0.29
A33C U43C A55G A90U U124C	2.09
A33G A69G A86U A96G	0.47
A30U C46U A56G G58A A117U U122C U131C	0.65
C32U A66U U102C A118G	1.21
A33G A94G U124C	0.4

Variant	self-cleavage
C32A U37C A59G A63G	2.15
A30U A86G A118U	0.24
A33G U43C U103C	0.51
A33G A96G U130C	0.5
A33U U72A A116U	0.08
A33G A66G U103C	0.51
A36G A66G U70C U127C	0.42
C32U C101U A140G	0.59
A30U A60U A64G G79A A111U	0.04
A33U U108C U132C	0
A33U A66U A116U	0.03
A36C U38C A118G	1.46
A33G U87C A95G	0.32
A33U A51U A59G U103C U139C	0.11
A33G A91G U122C	0.13
C32U A96G U103C U133A	0.66
A33U A63G U108A A114G U120C	0.01
A33G A82U U87C A94G U124A U133G A135U G137A	0.42
A33G A62C U124C U131C	0.29
C32U A92G A114U	0.09
A33U U70C A94G U108C A110G C128U	0

Variant	self-cleavage
A30U U87C U139C	2.36
A33U A60G G84A	2.13
A30U U87A U130C	1.28
A33G A59G A68G	1.25
A33U A54U A68C C77U U108C A111G	0
A33G A56G A94G A96G	0.98
G31C U57A U72C	0.29
C34U A116G U132A	0.67
A36C U43C U49C	1.76
A36G A66U A78U	0.76
A30U U39A A78G A111G	0.02
G31U C40U U57C A60G A90G A116G A129G	0.12
A36G A66G U122A	2.04
A33G U37C U87C	0.85
A30U C46A A59G A67G U130C	1.11
A33G A52G U57C U72C A89U A116G	0.05
C32U A33G A60G A117G	1.85
C34G U39A A54G A60C A92G	1.59
A33U U72A U102C	0.26
A30U A91G A96G A114U U122C	0.02
A33G A60G A111G	0.02

Variant	self-cleavage
A30U A56G A67G A68U	1.54
A33G U57C A95G A118G	0.45
A33G G74A A114G	0.03
A33G U43C G44A A55G A64G A67G	1.05
C32U A36G A111G U122A	0.02
A33G U72A A98G U108C	0.01
C32U U43C A114G	0.9
A33G A78G A82G U127G	0.08
A33U U38C U102C C107U	0.03
A33G G44A U122C	0.25
A33C A64G A92U A114G	0.04
A33G U49A A54G A60U A114G U131C	0.03
A33G A92G U132C	0.76
A33G A117G A129G	0.72
A33U A91G A92C U103G U122C	0.03
A36G A54G A116G U122A	0.35
C35U A59G A95G	0.86
A33U U87C A96G	0.57
G31A A51G A69G A90G	1.71
A33G U49C A56G A60U	0.27

Source: the RNAGym collection of RNA variant scans (doi:10.7554/elife.90254)
